Source: PMC13233820, “Recruitment of Mre11 to recombination sites during meiosis” (Nature Communications, 2026)
Substitutions are numbered along the chain they refer to. No constants are given. Whether binding was seen depends on the method and setting. In cells and extracts the contact can be indirect. Some binding calls cover weakened binding; strength is not graded here. Sequences can lack the tags named with a protein.

What was measured:
Assay in all cases: co-IP; meiotic SK1 cell extracts 4 h after transfer to SPM; anti-myc antibody and Dynabeads Protein G precipitate Mre11-myc; IP buffer 25 mM Tris-HCl pH 7.5, 150 mM NaCl, 1% Triton X-100, 5 mM EDTA, 0.1% sodium deoxycholate, benzonase; Mer2-iV5 detected by blot
[1] = target: T1, myc-tagged Mre11 SIM3 mutant (mre11-SIM3) (S. cerevisiae (SK1)) (UniProt P32829)
T1 sequence: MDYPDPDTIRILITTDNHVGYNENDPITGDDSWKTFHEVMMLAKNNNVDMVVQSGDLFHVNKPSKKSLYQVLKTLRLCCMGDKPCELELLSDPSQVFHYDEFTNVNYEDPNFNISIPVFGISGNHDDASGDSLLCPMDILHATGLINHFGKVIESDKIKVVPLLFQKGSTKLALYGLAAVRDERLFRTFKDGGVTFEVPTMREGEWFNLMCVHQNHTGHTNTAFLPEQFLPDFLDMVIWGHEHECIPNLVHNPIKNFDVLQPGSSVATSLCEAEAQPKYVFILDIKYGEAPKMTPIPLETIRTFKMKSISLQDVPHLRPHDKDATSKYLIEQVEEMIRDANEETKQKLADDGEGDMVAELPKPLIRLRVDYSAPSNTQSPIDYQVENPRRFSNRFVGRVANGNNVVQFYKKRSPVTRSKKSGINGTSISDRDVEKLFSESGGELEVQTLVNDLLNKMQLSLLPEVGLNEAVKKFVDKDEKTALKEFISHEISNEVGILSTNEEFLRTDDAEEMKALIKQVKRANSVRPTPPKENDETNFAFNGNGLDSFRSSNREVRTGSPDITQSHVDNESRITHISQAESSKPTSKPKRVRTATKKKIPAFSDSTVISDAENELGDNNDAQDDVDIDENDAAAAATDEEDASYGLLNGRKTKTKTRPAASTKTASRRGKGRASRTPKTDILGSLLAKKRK

[2] = target: T2, myc-tagged Mre11 SIM3 mutant without the C-terminal 15 residues (mre11-SIM3+ΔC15) (S. cerevisiae (SK1)) (UniProt P32829)
T2 sequence: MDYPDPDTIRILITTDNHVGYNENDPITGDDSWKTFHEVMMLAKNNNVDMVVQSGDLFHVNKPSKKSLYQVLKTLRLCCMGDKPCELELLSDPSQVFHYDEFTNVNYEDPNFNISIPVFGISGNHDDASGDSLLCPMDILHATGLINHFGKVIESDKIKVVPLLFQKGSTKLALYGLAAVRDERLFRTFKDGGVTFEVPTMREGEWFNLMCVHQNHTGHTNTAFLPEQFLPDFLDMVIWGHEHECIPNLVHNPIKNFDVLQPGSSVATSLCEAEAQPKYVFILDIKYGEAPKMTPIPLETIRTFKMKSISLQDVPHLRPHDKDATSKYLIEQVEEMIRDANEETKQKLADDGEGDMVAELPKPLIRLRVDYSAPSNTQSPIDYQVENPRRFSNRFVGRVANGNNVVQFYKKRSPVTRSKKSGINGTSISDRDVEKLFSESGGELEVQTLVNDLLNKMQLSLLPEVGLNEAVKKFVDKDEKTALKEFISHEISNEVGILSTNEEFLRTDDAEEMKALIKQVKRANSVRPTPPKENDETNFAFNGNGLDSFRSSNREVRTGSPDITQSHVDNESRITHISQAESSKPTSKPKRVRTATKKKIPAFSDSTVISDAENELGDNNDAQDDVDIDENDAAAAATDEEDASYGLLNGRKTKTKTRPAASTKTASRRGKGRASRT

[3] = target: T3, myc-tagged Mre11 (MRE11-myc8) (S. cerevisiae (SK1)) (UniProt P32829)
T3 sequence: T1 sequence with A633I, A634I, A635M, A636V, A637S

B1: V5-tagged Mer2 (Mer2-iV5) (protein, UniProt P21651 1-314)
chain: MVARGRTDEISTDVSEANSEHSLMITETSSPFRSIFSHSGKVANAGALEESDKQILEWAGKLELESMELRENSDKLIKVLNENSKTLCKSLNKFNQLLEQDAATNGNVKTLIKDLASQIENQLDKVSTAMLSKGDEKKTKSDSSYRQVLVEEISRYNSKITRHVTNKQHETEKSMRCTQEMLFNVGSQLEDVHKVLLSLSKDMHSLQTRQTALEMAFREKADHAYDRPDVSLNGTTLLHDMDEAHDKQRKKSVPPPRMMVTRSMKRRRSSSPTLSTSQNHNSEDNDDASHRLKRAARTIIPWEELRPDTLESEL
- binding [1]: binds
- binding [2]: no binding
- binding [3]: binds
